# The campaign covered roughly 340,000 compounds. About 2,100 (0.62%) were called active. Inconclusive means that the source gave no clear call. Such entries were picked first, then a sample of the others.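 The calls were made as follows: active = first-screen hits whose inhibition reached a set limit at any dose in the follow-up dose series; inconclusive = inhibition above the set first-screen limit but never retested; inactive = the rest.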
# Biological target: Rac GTPase-activating protein 1 (Homo sapiens) (UniProt Q9H0H5)
# Assay: blockers of MgcRacGAP-driven Rac1 GTP hydrolysis – biochemical, ADP Hunter fluorescence, primary and confirmatory, confirmation (AID 624330);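 also: fluorescence reports GDP produced by GAP-driven GTP hydrolysis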
# Conditions: MgcRacGAP-stimulated Rac1 GTP hydrolysis, at 30 µM, stronger effect = higher value, GST-tagged Rac1 F28L mutant substrate
# Chain of UniProt Q9H0H5 (Q9H0H5 whole entry, looked up): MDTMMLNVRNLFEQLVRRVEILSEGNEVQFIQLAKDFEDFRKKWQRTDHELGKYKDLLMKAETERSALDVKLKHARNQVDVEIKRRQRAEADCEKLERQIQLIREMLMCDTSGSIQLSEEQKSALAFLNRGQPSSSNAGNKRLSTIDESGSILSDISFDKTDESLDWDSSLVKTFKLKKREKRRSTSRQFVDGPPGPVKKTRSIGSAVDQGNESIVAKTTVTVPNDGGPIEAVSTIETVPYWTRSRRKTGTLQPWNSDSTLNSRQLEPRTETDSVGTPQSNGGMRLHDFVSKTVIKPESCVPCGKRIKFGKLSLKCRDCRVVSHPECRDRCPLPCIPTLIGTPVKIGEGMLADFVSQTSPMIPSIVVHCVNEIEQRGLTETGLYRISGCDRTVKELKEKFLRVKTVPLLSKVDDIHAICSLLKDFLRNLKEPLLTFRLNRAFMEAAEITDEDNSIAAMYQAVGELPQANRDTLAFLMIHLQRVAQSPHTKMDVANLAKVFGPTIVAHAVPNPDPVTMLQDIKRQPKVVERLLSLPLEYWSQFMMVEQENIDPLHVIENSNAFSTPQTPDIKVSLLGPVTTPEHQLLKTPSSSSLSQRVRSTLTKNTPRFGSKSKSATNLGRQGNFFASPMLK
row,Compound,inhibition
1,O=C(NCc1ccccc1)C1=C[C@H](c2csc3ccccc23)C[C@H](OCCCCO)O1,inactive: 5.83%
2,CCOc1ccc(/C=N/n2nnnc2N)cc1OCC,inactive: 9.77%
3,O=[N+]([O-])c1ccccc1/C=C/C=N/n1c(-c2ccccc2)n[nH]c1=S,inconclusive: 33.5%
4,COc1cc(/C=C2/SC(=S)N(CC3CCCO3)C2=O)ccc1O (stereo unspecified),inconclusive: 36.1%
5,O=C1C(Cl)=C(N2CCCCC2)C(=O)C(Cl)=C1c1cnc(N2CCCCC2)s1,inconclusive: 36.2%
6,O=C(NNC(=O)c1cc2ccccc2cc1O)c1cccs1,inactive: 3.14%
7,COc1ccc(NC2CCCN(C(=O)CCn3cccn3)C2)cc1 (stereo unspecified),inconclusive: 72.6%
8,COc1ccc(NC2CCCN(C(=O)c3cn(C)c4ccccc34)C2)cc1 (stereo unspecified),inconclusive: 33.3%
9,COc1ccc(OC)c(N(CC(=O)Nc2ccc(NC(C)=O)cc2)S(C)(=O)=O)c1,inconclusive: 34.6%
10,CC(C)CO/C(=N/S(=O)(=O)c1ccccc1)c1ccccc1,inactive: 5.75%
11,CCOc1cc(CN2CCN(C(=O)c3ccco3)CC2)ccc1OC,inconclusive: 35.7%
12,COc1cccc(-c2cc(C(F)(F)F)n3nc(C(=O)Nc4c(C)n(C)n(-c5ccccc5)c4=O)cc3n2)c1,inactive: 7.24%
13,CCOC(=O)c1c(/N=C/c2ccc(OC)cc2O)sc2c1CCN(C)C2,inactive: 17%
14,Nc1ccc(Nc2ccccc2)c(S(=O)(=O)O)c1,inconclusive: 43.6%
15,NC(=O)Nc1ccc(Nc2ccccc2)cc1,inconclusive: 88.3%
16,CC(=O)N1CCN(c2ccc(NCc3cccc4ccccc34)cc2)CC1,inconclusive: 124%
17,O=C(CN1CCN(c2ccc(O)cc2)CC1)Nc1cc(S(=O)(=O)N2CCCC2)ccc1Cl,inconclusive: 62.9%
18,C=CCNc1nc(=S)[nH]c2cc(OC)c(OC)cc12,inconclusive: 33.4%
19,C/C(=N\NS(=O)(=O)c1ccc(Cl)cc1)c1ccc(O)cc1,inconclusive: 32%
20,Clc1cccc(OCCCCN2CCCCC2)c1,inconclusive: 32.3%
21,COc1ccc2c(c1)-c1nc(/N=C/c3ccc(O)c(OC)c3)sc1CC2,inconclusive: 67.6%

row,Compound,inhibition
1,COc1cc(CN2CCCC(CO)(Cc3ccccc3C)C2)cc2c1OCO2 (stereo unspecified),inactive: 1.83%
2,c1ccc2c(c1)Nc1cc3ccccc3cc1S2,inactive: 14.6%
3,CCOc1cc(C=NN2CCCCCC2)ccc1O,inactive: 30.4%
4,C/C(=N\NC(=O)Cn1cc([N+](=O)[O-])cn1)c1ccc(O)cc1,inconclusive: 33.9%
5,CN(C)c1ccc(NC(=O)c2cccc(C(=O)Nc3ccc(N(C)C)cc3)n2)cc1,inconclusive: 39.4%
6,COc1cccc(C(=O)C(C#N)=C(SC)SC)c1,inconclusive: 53%
7,CN(CCC#N)C(=O)COC(=O)c1c2c(nc3ccccc13)/C(=C\c1ccco1)CC2,inconclusive: 31.9%
8,O=C(O)Cn1nc(-c2ccccc2)ccc1=O,inactive: -3.67%
9,COc1cc(N2CCCC2)c(OC)cc1/C=C1/NC(=S)NC1=O,inconclusive: 57.9%
10,Cc1c(C)c2cccnc2c2ncccc12,inactive: 8.09%
11,Cc1ccc(-c2n[nH]c(=S)n2/N=C/c2ccncc2)cc1,inconclusive: 32.6%
12,COc1ccc(Nc2ccccc2N)cc1,inconclusive: 96.7%
13,COc1cc(C(=O)Nc2ccc(N(C)C)cc2)cc(OC)c1OC,inconclusive: 41.2%
14,O=C(NC1CCCCC1)c1sc(=S)n2c1[nH]c(=O)c1ccccc12,inactive: 10.6%
15,Cc1nc(NCC(c2ccccc2)N(C)C)c2c(C)c(C)sc2n1 (stereo unspecified),inactive: 7.93%
16,Cc1ccc(/C=C/C(=O)OCC(=O)NCCN2C(=O)CSC2=O)o1,inactive: 5.03%
17,Cc1ccccc1-n1sc2cc(F)ccc2c1=O,inconclusive: 97%
18,COc1cc(/C=C(\C#N)c2nc3ccccc3n2C)cc(OC)c1O,inconclusive: 46.8%
19,CCn1c(=O)n(CC)c2cc(N)ccc21,inconclusive: 104%
20,CC(C)c1nccn1CCC(=O)O,inactive: 7.06%
21,CN1CN(C)c2cccc3cccc1c23,inconclusive: 53.1%

row,Compound,inhibition
1,COC(=O)C[C@H]1C[C@@H]2c3cc(N(C)C)ccc3O[C@@H]2[C@H](CO)O1,inconclusive: 34.3%
2,COc1ccc(N2CCN(CC(=O)Nc3nc(C)cs3)CC2)cc1,inconclusive: 35.7%
3,Nc1[nH]nc2nc3ccccc3cc12,inconclusive: 32.1%
4,CC1CCCC(C)N1CCCNC(=O)CN1C(=O)c2cccnc2Oc2ccc(Cl)cc21 (stereo unspecified),inactive: 6.32%
5,CCC(CC)C(=O)Nc1ccc(Nc2ccccc2)cc1,inactive: 28%
6,CCOc1cc(/C=N/NC(=O)CCn2nnc3ccccc32)ccc1O,inconclusive: 52.6%
7,CC1CCN(CCCCOc2ccccc2F)CC1,inconclusive: 35.5%
8,O=C1NC(=S)SC1=Cc1ccccc1Cl,inconclusive: 35.5%
9,CCOC(=O)C(Cc1ccccc1)C(=O)Nc1cccc(C)c1 (stereo unspecified),inactive: 1.33%
10,CC(C(=O)Nc1ccc(C(=O)O)c(O)c1)N1C(=O)/C(=C\c2ccco2)SC1=S (stereo unspecified),inconclusive: 68.3%
11,COc1cc(/C=C2/C(=O)c3cccc([N+](=O)[O-])c3C2=O)c(Br)cc1O,inconclusive: 99.8%
12,Cn1c(=O)oc2cc(S(=O)(=O)Nc3ccc(O)cc3)ccc21,inconclusive: 64.9%
13,COc1cccc2c1NC(C(=O)O)C1CC=CC21 (stereo unspecified),inconclusive: 58.1%
14,CN1CCN(c2ccc(Nc3ccnc4cc(Cl)ccc34)cc2)CC1,inconclusive: 32.2%
15,COc1ccc(NC2CCN(C3CC(=O)N(c4ccc(F)c(Cl)c4)C3=O)CC2)cc1 (stereo unspecified),inconclusive: 63.9%
16,CCOc1ccc(/C=N/n2nnnc2N)cc1O,inconclusive: 55.9%
17,Oc1ccc(/C=N/Nc2ncc(Br)cn2)c(O)c1,inconclusive: 104%
18,CCN(CC)c1ccc(NC(=O)CN2CCN(c3ccccc3F)CC2)cc1,inconclusive: 35.1%
19,COc1ccc(-c2cc(CCCC(=O)NCCc3ccc(OC)cc3OC)no2)cc1,inactive: -0.07%

# From PubChem BioAssay AID624330 (Southern Research Specialized Biocontainment Screening …, 2012)
